Activity change, negative = inhibition and Potency data for 24 compounds are collected here from PubChem BioAssay AID894 (National Center for Advancing Translational Sciences (NCATS), 2007).

Values joined by “and” are separate entries in the source; they are usually repeats but may differ in a detail not shown here. Identical values can stand only once. Out of some 150,000 compounds screened, about 6,500 (4.3%) were called active. Not shown: some 12% with an inconclusive outcome. The call rests on the fitted dose curve; in most records, active means well fitted inhibition curve with a large enough effect (not every such curve was filed as active); inconclusive means small, poorly fitted or top-dose-only effect, or another doubt; inactive means no such curve, though single readings can be large or run the other way. Only a part is listed here, and it is no random draw.
On the % scale 0 is the no-effect control and ±100 the full control effect; potency means the concentration at half of the fitted maximal effect.

Sequence of UniProt P15428 (P15428 whole entry, looked up): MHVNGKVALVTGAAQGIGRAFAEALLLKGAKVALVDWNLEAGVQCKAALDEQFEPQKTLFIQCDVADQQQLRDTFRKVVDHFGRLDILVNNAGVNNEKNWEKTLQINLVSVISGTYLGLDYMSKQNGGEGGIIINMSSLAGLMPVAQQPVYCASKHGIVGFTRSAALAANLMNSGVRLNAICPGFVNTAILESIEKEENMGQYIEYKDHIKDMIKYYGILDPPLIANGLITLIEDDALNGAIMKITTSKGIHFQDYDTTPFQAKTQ

The test deals with 15-hydroxyprostaglandin dehydrogenase [NAD(+)] (Homo sapiens) (UniProt P15428). The experiment in a line: qHTS Assay for Inhibitors of HPGD (15-Hydroxyprostaglandin Dehydrogenase). Conditions: purified HPGD, NADH fluorescence kinetic, PGE2 substrate; activity change, negative = inhibition: hits give low values. From the text:
Human 15-Hydroxyprostaglandin dehydrogenase (HPGD) catalyzes the inactivation of prostaglandin E2, and plays a major role in cancer biology by antagonizing the oncogenic potential of cyclooxygenase type 2 (COX2). Assays are available, based on absorbance/fluorescence increase of NADH with the substrate 15-OH prostaglandin E2. References 1. Myung SJ, Rerko RM, Yan M, Platzer P, Guda K, Dotson A, Lawrence E, Dannenberg AJ, Lovgren AK, Luo G, Pretlow TP, Newman RA, Willis J, Dawson D, Markowitz SD. 15-Hydroxyprostaglandin dehydrogenase is an in vivo suppressor of colon tumorigenesis. […] 2. Yan M, Rerko RM, Platzer P, Dawson D, Willis J, Tong M, Lawrence E, Lutterbaugh J, Lu S, Willson JK, Luo G, Hensold J, Tai HH, Wilson K, Markowitz SD. 15-Hydroxyprostaglandin dehydrogenase, a COX-2 oncogene antagonist, is a TGF-beta-induced suppressor of human gastrointestinal cancers. Proc Natl Acad Sci U S A. 2004 Dec 14;101(50):17468-73. 3. Yang L, Amann JM, Kikuchi T, Porta R, Guix M, Gonzalez A, Park KH, Billheimer D, Arteaga CL, Tai HH, Dubois R, Carbone DP, Johnson DH. Inhibition of Epidermal Growth Factor Receptor Signaling Elevates 15-Hydroxyprostaglandin Dehydrogenase in Non-Small-Cell Lung Cancer. Cancer Res. 2007 Jun 15;67(12):5587-5593. Inhibition of HPGD activity was screened by utilizing prostaglandin as an electron donor and NAD+ as an electron acceptor/cofactor. An increase in the fluorescence intensity due to conversion of NAD+ to NADH was used to measure the enzyme activity. NIH Chemical Genomics Center [NCGC] Structural Genomics Consortium [SGC]
Buffer: 50 mM Tris-HCl, 0.01% Tween 20, pH 8. Enzyme Buffer: 50 mM Tris-HCl, 0.5 mM NAD+ and 0.01% Tween 20, pH 8. Reagents/Controls: Buffer in columns 3 and 4 as negative control (no enzyme). Substrate/cofactor solution: 1 mM NAD+ and 30 uM prostaglandin (Sigma, prostaglandin E2, # P5640) final concentrations dispensed throughout the plate. Enzyme: 20 nM HPGD final concentration in columns 1, 2, 5-48. Column 1 and 2 is neutral (100% activity). A titration of control inhibitor GW5074 (G6416 Sigma-Aldrich, St. Louis, MO) top concentration 10 mM in DMSO, then 1:2 dilution for a total of 16 concentrations in duplicate) was pin-transferred into column 2. Assay Steps: Three uL of enzyme were dispensed to 1536-well Greiner black solid bottom plates. Compounds and control inhibitor (23 nL) were transferred via Kalypsys PinTool. The plates were incubated for 15 min at room temperature, and then 1 uL of substrate/cofactor solution was added to start the reaction. The plates were immediately transferred to and read 5 times every 30 seconds on ViewLux High-throughput CCD imager (Perkin-Elmer) using 360 nm excitation and 450 nm emission fluorescence protocol. The fluorescence intensity difference between the last and the first time points was used to compute reaction progress.
(In qHTS, concentration-response curves come from the screen itself.)
Consider `O=C1C(=O)c2ccccc2C(O)=C1C1CCC(c2ccc(Cl)cc2)CC1` (centres undefined), for which the activity change, negative = inhibition is inactive: -16.3%.

As to `O=S(=O)(c1ccccc1)N(CC(O)Cn1c2ccccc2c2ccccc21)c1ccccc1` (centres undefined), the activity change, negative = inhibition is inactive: 32.5%.

Turning to `N[C@H](C(=O)N[C@@H]1C(=O)N2C(C(=O)O)=C(Cl)CS[C@@H]12)c1ccccc1`, the activity change, negative = inhibition was inactive: 4.2% and inactive: -10.6%.

Consider `O=C(NCCCNc1ccc([N+](=O)[O-])cc1)C(F)(F)F`, for which the Potency was active: 20 µM.

Take `S=c1[nH]nc(-c2cccnc2)n1/N=C/C=C/c1ccccc1`: the Potency was active: 12.6 µM.

On to `Cc1ccccc1OCc1n[nH]c(=S)n1Cc1ccccc1`, for which the Potency is active: 14.1 µM.

As to `COc1ccccc1OCCNC(=O)c1cccs1`, the Potency is active: 15.8 µM.

With `Cc1ccc(S(=O)(=O)N2CCC(C(=O)OC(C)C(=O)NCc3ccc4c(c3)OCO4)CC2)cc1` (centres undefined), the Potency was active: 17.8 µM.

As for `COc1ccc(S(=O)(=O)N2CCC(C(=O)N3CCCCC3)CC2)cc1Cl`, the Potency was active: 15.8 µM.

As to `Cc1cn(-c2ccc(Br)cc2)[nH]c1=O`, the Potency is active: 25.1 µM.

With `CC(C)CCNC(=O)NC(=O)COC(=O)c1cc(S(=O)(=O)N2CCOCC2)ccc1N1CCCCC1`, the activity change, negative = inhibition was inactive: 73.7%.

As for `CCCN[C@@H](C)C(=O)Nc1ccccc1C`, the activity change, negative = inhibition was inactive: -9.25%.

As to `N#C/C(=C\c1ccc(O)c(O)c1)C(=O)NCc1ccccc1`, the activity change, negative = inhibition is inactive: -28.8%.

`O=C(CSc1cccs1)NCCc1ccccc1`: the Potency is active: 14.1 µM.

In the case of `COC(=O)[C@H](Cc1ccccc1)NC(=O)O[C@@H]1C(=O)c2cc(OC)ccc2O[C@H]1c1ccc(OC)c(Br)c1`, the activity change, negative = inhibition is inactive: -16.6%.

As for `CCC(C)n1c(=N)c(C#N)cc2c(=O)n3ccccc3nc21` (centres undefined), the activity change, negative = inhibition was inactive: 84.8%.

On to `Nc1nc2ncc(CNc3ccc(C(=O)NC(CCC(=O)O)C(=O)O)cc3)nc2c(=O)[nH]1` (centres undefined), for which the activity change, negative = inhibition was inactive: -5.7% and inactive: -23.9%.

In the case of `CC1=C(C(=O)O)N2C(=O)[C@@H](NC(=O)C(N)c3ccccc3)[C@H]2SC1` (some centres undefined), the activity change, negative = inhibition is inactive: -24.2%.

As for `CN(C)c1ccc(O)c2c1C[C@@H]1C[C@H]3C(N(C)C)C(=O)C(C(N)=O)=C(O)[C@@]3(O)C(=O)C1=C2O` (some centres undefined), the Potency was active: 28.2 µM.

As for `COc1cc(/C=C/C(=O)c2cccs2)cc(OC)c1OC`, the Potency is active: 28.2 µM.

`Cc1nnc(SCc2cc(=O)oc3cc(O)ccc23)n1Cc1ccccc1`: the activity change, negative = inhibition is inactive: 45.8%.

Turning to `CC1COc2c(N3CCN(C)CC3)c(F)cc3c(=O)c(C(=O)O)cn1c23` (centres undefined), the activity change, negative = inhibition was inactive: -16.7%.

As to `Cc1ccc(N2C(=O)/C(=C/c3ccco3)SC2=S)cc1`, the activity change, negative = inhibition is inactive: -9.87%.

With `N#Cc1c(NC(=O)CCCN2C(=O)c3ccccc3C2=O)oc(-c2ccccc2)c1-c1ccccc1`, the activity change, negative = inhibition was inactive: 64.5%.
